Experimental data published in PubChem BioAssay AID2451 (National Center for Advancing Translational Sciences (NCATS), 2010).
“And” between values parts separate entries of the source, which are not always exact repeats. Identical values can stand only once. Hit rate of the full screen: of about 290,000 compounds, about 2,100 (0.72%) were called active. Inconclusive means that the source gave no clear call. Such entries were picked first, then a sample of the others. Calls come from the whole dose curve; as a rule, active = well fitted inhibition curve with a large enough effect; inconclusive = small, poorly fitted or top-dose-only effect, or effect the other way; inactive = flat fitted curve, though single readings scatter. Potencies beside an inconclusive call are fits to weak or partial responses and may not hold up.

Target: Fructose-bisphosphate aldolase (Giardia intestinalis (strain ATCC 50803 / WB clone C6)) (UniProt A8B2U2)
UniProt A8B2U2, sequence (A8B2U2 whole entry, looked up): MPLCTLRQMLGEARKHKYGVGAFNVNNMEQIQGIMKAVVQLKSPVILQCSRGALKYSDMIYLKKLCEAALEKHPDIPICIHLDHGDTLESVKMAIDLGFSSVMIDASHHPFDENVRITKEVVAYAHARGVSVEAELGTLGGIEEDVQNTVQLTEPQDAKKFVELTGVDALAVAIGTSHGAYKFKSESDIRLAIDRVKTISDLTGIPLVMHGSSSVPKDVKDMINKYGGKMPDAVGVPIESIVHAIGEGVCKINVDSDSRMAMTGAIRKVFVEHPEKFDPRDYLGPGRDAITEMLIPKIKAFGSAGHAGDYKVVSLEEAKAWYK
Test: qHTS Assay for Inhibitors of Fructose-1,6-bisphosphate Aldolase from Giardia Lamblia; note: nearly all actives have a fitted effect of over 55% in size
Details: purified Giardia FBPA; series mostly up to 59.6 µM
Procedure, shortened: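 Giardia FBPA (40 nM reagent) was preincubated 10 min at RT with compound (up to 57.5 uM final), then substrate plus GAPDH/TPI/NAD/arsenate coupling system with diaphorase/resazurin was added; resorufin fluorescence (525/598 nm) was read after 20 min.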
Potency is the fitted concentration of half-maximal effect; tags give direction and shape of the fitted curve.

| SMILES | Potency |
| --- | --- |
| CC(=O)OCC1=C(C(=O)O)N2C(=O)[C@@H](NC(=O)CSc3ccncc3)[C@H]2SC1 | inactive |
| C#CCOc1ccc2c3c(c(=O)oc2c1)CCCC3 | inactive |
| Cn1c(C(C#N)C2=C(Cl)C(=O)N(c3ccccc3)C2=O)nc2ccccc21 (stereo unspecified) | inconclusive: 15.8 µM [inhibitor, partial curve] |
| Cc1ccc(SCCN2CCN(C)CC2)cc1 | active: 22.4 µM |
| O=C(O)CCc1ccc(-c2ccc(Cl)cc2)n1CC(=O)O | inconclusive: 19.9 µM [activator, partial curve] |
| C/C(Cn1nnc([N+](=O)[O-])n1)=N\NC(=O)c1ccc(O)cc1O | inconclusive: 9.98 µM [inhibitor, partial curve] |
| CC(=O)c1ccc(OC(=O)C2c3ccccc3Oc3ccccc32)cc1 | inactive |
| O=C(CSc1n[nH]c(-c2ccccn2)n1)Nc1ccc(F)cc1 | inconclusive: 28.2 µM [inhibitor, single point] |
| CC(=O)c1cccc(OCC(O)CNCCc2ccc(Cl)cc2)c1 (stereo unspecified) | inconclusive: 8.91 µM [inhibitor, full curve, poor fit] |
| COc1cccc(-c2c(C(=O)N/N=C/c3ccc(C)s3)nnn2-c2nonc2N)c1 | inconclusive: 35.5 µM [inhibitor, partial curve] |
| COc1cc(C(=O)N/N=C/c2ccccn2)cc(OC)c1OC | inconclusive: 17.7 µM [inhibitor, single point] |
| O=C1C(c2ccccn2)=[N+]([O-])c2ccccc21 | inconclusive: 14.1 µM [inhibitor, full curve] |
| Oc1ccc(F)c2cccnc12 | inconclusive: 5.61 µM [inhibitor, full curve] |
| O=C(c1ccc2c(c1)N(Cc1ccccc1F)C(=O)c1ccccc1S2)N1CCOCC1 | inconclusive: 15.8 µM [inhibitor, partial curve] |
| COc1cc(C(=O)NNc2nc3cc4c(cc3s2)OCO4)cc(OC)c1OC | inactive |
| Nc1ccccc1S(=O)(=O)Nc1cccc2cccnc12 | active: 15.8 µM and active: 14.1 µM |
| Nn1c(=S)[nH]nc(Cc2ccc(O)cc2)c1=O | inconclusive: 7.92 µM [inhibitor, partial curve] |
| CN(C)c1ccc(NC(=O)Nc2csc3ccccc23)cc1 | inconclusive: 44.6 µM [inhibitor, single point] |
| O=C(c1ccccc1)[C@@H]1[C@@H](C(=O)c2ccc(F)cc2)[C@@]2(C(=O)Nc3ccccc32)[C@H]2c3ccccc3C=CN12 | inconclusive: 12.6 µM [inhibitor, partial curve] |
| COC(=O)CCC(=O)OC1(C)C(=O)C=C2C=C(C3CC3)N(Cc3ccccc3)C=C2C1=O (stereo unspecified) | inconclusive: 0.63 µM [inhibitor, full curve] |
| O=C(C[n+]1ccccc1)Nc1c(Cl)cc(Cl)cc1Cl | active: 12.6 µM |
| COC(=O)CC(N)c1ccc(OC)c2ccccc12 (stereo unspecified) | inactive |
| c1ccc2c(N3CCCC3)nc(-c3ccncc3)nc2c1 | inactive |

| SMILES | Potency |
| --- | --- |
| O=C(N1CCOCC1)C1(S(=O)(=O)c2ccccc2)CC=CC1 | inactive |
| CC1(OC(=O)C2CCCC2)C(=O)C=C2C=C3CCCN3C=C2C1=O (stereo unspecified) | inconclusive: 0.998 µM [inhibitor, partial curve] |
| CCOCCCNCC(=O)N1CCN(S(=O)(=O)c2ccc(C)cc2)CC1 | inconclusive: 14.1 µM [inhibitor, partial curve] |
| COc1ccc(-c2nc(CN3CCC(c4ccccc4)CC3)c(C)o2)cc1OC | inactive |
| CC(=O)Nc1ccn(C2OC(C(COC(C)=O)NC(=O)C(CCCCNC(=O)OCc3ccccc3)NC(=O)OC(C)(C)C)C(OC(C)=O)C2OC(C)=O)c(=O)n1 (stereo unspecified) | inactive |
| C/C(=N\NC(=O)c1cccc2ccccc12)c1cccs1 | inconclusive: 28.2 µM [inhibitor, partial curve] |
| O=[N+]([O-])c1ccccc1/C=C/CN1CCSCC1 | active: 15.8 µM |
| CCOc1cccc(CNc2ccc(O)cc2)c1OCc1ccc(Cl)cc1 | inconclusive: 14.1 µM [inhibitor, partial curve] |
| CC(C)(C)C(=O)Nc1nnc(SCc2ccc(F)cc2)s1 | inactive |
| COc1ccc(OCc2cc(C(=O)N(C)C3CCOCC3)no2)c2ccccc12 | inconclusive: 14.1 µM [inhibitor, partial curve] |
| CCN(CC)C(=O)c1ccc2c(c1)C1C=CCC1C(C(=O)O)N2 (stereo unspecified) | inconclusive: 20 µM [inhibitor, partial curve] |
| CCC(C)Nc1nc2c(c(=O)n(C)c(=O)n2C)n1Cc1ccc(F)cc1 (stereo unspecified) | inactive |
| COCCNc1c(-c2ccc(OC)cc2)nc2ccc(Cl)cn12 | inconclusive: 15.8 µM [inhibitor, partial curve] |
| Cc1ccc(NC(=O)CN(C)CC(=O)Nc2ccccc2Oc2ccccc2)cc1 | active: 12.6 µM |
| COc1ccc(Nc2nc(NN)nc(Nc3ccc(OC)cc3)n2)cc1 | inconclusive: 14.1 µM [activator, partial curve] |
| Cc1ccc2oc(C(=O)NC3CCS(=O)(=O)C3)c(C)c2c1 (stereo unspecified) | inactive |
| CC(C)COCc1ccc(O)c2ncccc12 | inconclusive: 5 µM [inhibitor, partial curve] |
| COc1ccc(/C=C/C(=O)OC(C)CN2CCCCC2)cc1 (stereo unspecified) | inconclusive: 22.4 µM [inhibitor, partial curve] |
| COc1cc(OC)cc(C(=O)NNC(=S)NC(=O)c2cccnc2)c1 | active: 2 µM |
| N#Cc1nc(-c2ccccc2F)oc1NCc1ccccc1 | inactive |
| COc1cc(O)c(C(CC(=O)N2CCOCC2)c2ccc3c(c2)OCO3)c(OC)c1 (stereo unspecified) | inconclusive: 17.7 µM [inhibitor, single point] |
| COc1ccc(NC(=O)c2cccnc2C(=O)O)c(OC)c1 | inconclusive: 3.97 µM [inhibitor, full curve] |
| Cc1cccc(CN2CCN(C(c3ccccc3)c3ccc(Cl)cc3)CC2)c1 (stereo unspecified) | inconclusive: 19.9 µM [inhibitor, single point] and inconclusive: 17.7 µM [inhibitor, single point] |
